From patent US20090074815A1, “Immunomodulator Compounds as Vaccine Enhancers” (SCICLONE PHARMACEUTICALS, INC., priority 2005, published 2009)

Test: Indices of humoral immunity (CD20+, IgA, IgM, IgG, CH50, circulating immune complexes) before and after vaccination
Settings: patients treated with SCV-07 versus patients without immunomodulator and healthy patients
Description: This group, which received SCV-07 and hepatitis B vaccine, included thirty-three (33) essentially healthy students from the Chelyabinsk State Medical Academy.
The hepatitis vaccine Engerix-B® produced by SmithKlineBeecham-Biomed (Russia) was administered as a course of 3 doses given at months 0, 1, and 6. Immunological examinations of the subjects were carried out before the first administration of the vaccine and at one month after completion of the course of immunization. All participants were seen by an allergologist-immunologist once during the first three months following vaccine administration. Subjects receiving SCV-07 were examined daily by the allergologist-immunologist. […]
Participants were evaluated to determine levels of leukocytes in peripheral blood, leukocytary formula, the presence of marker specific lymphocytes (CD3, CD4, CD8, CD16, CD95 and CD20), lysosomal activity of neutrophils; oxygen-dependent metabolism with spontaneous and induced hematocrit (HCT) tests, phagocytary function of neutrophils according to the latex particle absorption model; immunoglobulin IgA, IgM, IgG concentrations; total hemolytic activity of complement (CH50) in blood serum and for circulating immune complexes. Titers of antibodies to HBAg in the blood serum were determined by immunoenzyme analysis in paired sera using the test system of Vector-Best, Ltd., Novosibirsk, Russia. […]

Structure (SMILES): N[C@H](CCC(=O)N[C@@H](Cc1c[nH]c2ccccc12)C(=O)O)C(=O)O [SCV-07, γ-D-glutamyl-L-tryptophan]
- concentration of CD20+ lymphocytes and IgA, IgM and IgG in the blood: no significant difference
